# Test results: publication PMC12040169 (PLOS Biology, 2025)
# The list shows a part of the results.
# Test system: T1, C. trachomatis L2/434/Bu expressing GFP (CTL2-GFP)
# T1 construct: L2/434/Bu GFP intracellular growth in HeLa cells
# Parameters: species or system HeLa; C. trachomatis total inclusion area by high-content imaging, normalised to DMSO
# Conditions: total inclusion area; 28.5 h, 10 µM; inhibitor
# Method in brief: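 Following bulk GFP and resorufin fluorescence reads, infected cells were fixed, Hoechst-stained and imaged on a high-content platform. Inclusion total area and number per well served as growth proxies; nuclei counts indicated host viability. MICs were derived as for the fluorescence assay.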
row,SMILES,% of control remaining
1,N#CC1=C(N)Oc2[nH]nc(-c3cccs3)c2C1c1ccco1 (stereo not drawn) [CBK266088],119.433
2,CC(C)(C)CCNCCN1CCOCC1 [CBK001895],91.9226
3,Nc1nc(=O)[nH]c2c1ncn2[C@H]1C[C@@H](O)[C@@H](CO)O1 [CBK201323],108.845
4,COc1ccc(NC(=O)Nc2nn(Cc3c(F)cccc3Cl)cc2Cl)cc1OC [CBK267019],125.985
5,O=C(NC1CCCCC1)c1cc(S(=O)(=O)N2CCOCC2)ccc1Cl [CBK261662],105.298
6,CNC(=O)Nc1cccc(S(N)(=O)=O)c1 [CBK023839],99.5524
7,Cc1ccc(C(=O)Nc2ccccc2C(=O)N2CCN(Cc3ccccc3)CC2)cc1 [CBK263560],92.7329
8,CN1CC(c2ccccc2)CC2(CCN(CCCn3cnnn3)CC2)C1 (stereo not drawn) [CBK306522],89.2913
9,C=C(C)c1cccc(C(C)(C)NC(=O)N2CCC(C(=O)NC(c3ccc(OC)nc3)c3ccccc3C)CC2)c1 (stereo not drawn) [CBK074871],96.3816
10,COCc1cccc(-c2nccnc2OC(c2ccccc2)c2ccccc2)c1 [CBK106960],82.8526
11,CCn1nnc2c(=O)n(CC(=O)Nc3ccccc3)cnc21 [CBK287828],87.0996
12,COC(C)(C)C(=O)N1CCCC(c2ccc(Cc3ccc(Cl)cc3)cn2)C1 (stereo not drawn) [CBK285846],107.409
13,O=[N+]([O-])c1ccc(CN2CCN(c3nccnc3OCc3ccc(Cl)c(Cl)c3)CC2)cc1 [CBK083076T],91.3498
14,Cc1nc(SCC(=O)O)nc(O)c1Oc1ccccc1 [CBK263621],87.8427
15,O=C(CCc1ccccc1)NC(=S)Nc1ccc(-c2nc3ccccc3[nH]2)cc1 [CBK267472],80.8665
16,CCOC(=O)c1sc(NS(=O)(=O)c2cccc(Cl)c2C)nc1-c1ccccc1 [CBK000749],104.62
17,O=C(CS(=O)(=O)Cc1ccccc1)Nc1ccc(S(=O)(=O)N2CCOCC2)cc1 [CBK266658],103.972
18,CN1CCN(C(=O)c2ccc(-c3cncc(-c4cc5ccccc5[nH]4)n3)c(F)c2)CC1 [CBK144906],81.8867
19,Cc1cccc(CN(CC(C)(C)CN)C(=O)Nc2ccc(-c3ccccc3)cc2)n1 [CBK002453C],68.9284
20,CCc1nn(CC(=O)N2CCCC2)c(=O)c2cc3sccc3n12 [CBK284028],112.933
21,O=C(Nc1ccc(F)c(F)c1)NC1CCC2CN(CCOc3ccccc3)CC2C1 (stereo not drawn) [CBK083365T],0.1534
22,Cc1ccc(NS(=O)(=O)c2cc(C(=O)O)ccc2Cl)cc1S(=O)(=O)N1CCOCC1 [CBK296954],83.1211
23,CC(C)N(Cc1nc(-c2ccc(Cl)cc2)no1)S(=O)(=O)c1cccc([N+](=O)[O-])c1 [CBK267050],127.48
24,Cc1cccn2cc(CCNC(=O)N3CCOCC3C3CC3)nc12 (stereo not drawn) [CBK304033],97.5915
25,COC(=O)CCc1sc(NC(=O)CSCC(=O)O)nc1-c1ccc(OC)cc1 [CBK296116],120.716
26,O=C(c1cccc(F)c1)N1CCCC1c1n[nH]cc1-c1ccncc1 (stereo not drawn) [CBK283437],87.0229

row,SMILES,% of control remaining
1,O=S(=O)(c1ccccc1)n1cc2c3c(cccc31)CN(CCO)C2 [CBK156333T],92.3164
2,CN(C)CCn1ccnc1C1CCCN(C(=O)Cc2cccc(Cl)c2)C1 (stereo not drawn) [CBK307272],76.1458
3,COc1ccc(-c2cc(C(=O)Nc3ccc4ncccc4c3)cnc2-c2ccccc2)cc1 [CBK036623],99.5423
4,Cn1c(=O)c2c(nc(CN3CCC(Cc4ccccc4)CC3)n2CCN2CCOCC2)n(C)c1=O [CBK269380],85.4682
5,CCCCOc1ccc(NC(=O)NCCC2=CCCCC2)cc1 [CBK043751],37.1126
6,Cc1cccn2cc(CC(=O)NCCNC(=O)OC(C)(C)C)nc12 [CBK306122],43.9484
7,COCCc1noc(CC2CCN(c3nc(C#N)c(Cl)s3)CC2)n1 [CBK304205],94.1822
8,CC1CCN(CCOCC(O)CNS(=O)(=O)O)CC1 (stereo not drawn) [CBK261454N],86.6748
9,CC(=O)Nc1ccc2n(c1=O)C[C@H]1C[C@@H]2CN(C(=O)COc2ccccc2)C1 [CBK289074],108.06
10,Cn1c(N2CC[C@H](O)C2)nc2cc(C(=O)NC3CCNCC3)ccc21 [CBK306873],12.1913
11,COc1ccc(-c2nc3ccc(OC)cc3[nH]2)cc1 [CBK000126],14.7693
12,O=S(=O)(Nc1nc2c(s1)CCCC2)c1ccc(Br)cc1 [CBK097787],83.6387
13,Cc1nc(C2CCCN(C(=O)c3ccncc3)C2)c2sccn12 (stereo not drawn) [CBK285199],103.297
14,O=C(CN1CCC(c2nc3ccccc3[nH]2)CC1)Nc1ccc(F)cc1 [CBK287720],89.5091
15,O=[N+]([O-])c1ccccc1NCCNS(=O)(=O)c1ccccc1 [CBK263552],94.3036
16,COCCNc1nc(-c2cccc(F)c2)cn2ccnc12 [CBK066465],153.401
17,COc1ccccc1-c1cnc2[nH]c(=O)n(CC3CCOCC3)c2n1 [CBK064286],81.8262
18,Cc1ccc([N+](=O)[O-])cc1NC(=O)C1Cc2ccccc2CN1C(=O)OCc1ccccc1 (stereo not drawn) [CBK262463],65.4149
19,COc1cnc(-c2ccccc2OC)c(NC(C)=O)n1 [CBK145259],94.3033
20,CN(C)C(=O)N1CCN(C(=O)c2cn(Cc3cccc(S(C)(=O)=O)c3)nn2)CC1 [CBK160969T],84.3576
21,O=C(CN1CCN(c2cc(-c3ccsc3)ncn2)CC1)N1CCCC1 [CBK091074],117.287
22,Cn1c(CCNC(=O)C2CCCCC2)nc2cc([N+](=O)[O-])ccc21 [CBK268440],97.9303
23,COc1ccc(-c2cnc(NS(C)(=O)=O)c(C(=O)Nc3cc(C)nn3C)c2)cc1 [CBK076528],90.2477
24,CC(C)[C@@H](CO)Nc1nc(-c2ccccc2Cl)cn2ccnc12 [CBK037368],101.071
25,COc1ccc(C(=O)N[C@H]2C[C@H]3C(=O)Nc4ccccc4C(=O)N3C2)cc1 [CBK289355],114.274
26,Nc1ccc(-c2nc3cc(C(=O)c4ccc5[nH]c(-c6ccc(N)cc6)nc5c4)ccc3[nH]2)cc1 [CBK262848],82.7709

row,SMILES,% of control remaining
1,O=S(=O)(NC1CCN(Cc2ccccc2)CC1)c1ccc(-c2ccon2)s1 [CBK062038],95.3253
2,O=C(CSc1nnc(-c2ccncc2)[nH]1)c1ccc(O)c(O)c1 [CBK264346],109.19
3,O=C(O)c1ccc2c(c1)C(=O)N(c1cccnc1)C2=O [CBK287173],104.797
4,O=C(Nc1ccc(OC(F)(F)F)cc1)Nc1cc(-c2cccs2)n[nH]1 [CBK020563],9.722
5,CCOc1cc(NC2CCN(C(=O)C3CCCCC3(C)C)CC2)ncn1 (stereo not drawn) [CBK305505],32.8131
6,Cc1cc(-c2cn3cc(C(=O)N4CCCCC4)nc3c(=O)n2C)c(C)o1 [CBK306890],50.8918
7,COc1ccc(NC(=O)C(C)Sc2nc(N)cc(O)n2)cc1 (stereo not drawn) [CBK265699],82.8747
8,COc1ccc(C(=O)N2CCC3(CCCN(CCN4C(=O)c5ccccc5C4=O)C3)C2)cc1OC (stereo not drawn) [CBK132862],51.5437
9,Cc1[nH]c(=O)[nH]c(=O)c1CC(=O)NCC1CCN(c2ccccc2F)C1 (stereo not drawn) [CBK304325],30.7799
10,COc1ccccc1CC(C)NC(=O)CC1CCN(c2nc(C)cc(C)n2)CC1 (stereo not drawn) [CBK285956],128.126
11,Cc1sc(NC(=S)NC(=O)COc2ccc(Br)cc2Cl)c(C(N)=O)c1C [CBK266127],120.709
12,O=c1cc(CO)oc(CN2CCCCCC2)c1O [CBK288363],85.4686
13,O=C(N[C@H]1C[C@@H]2C(=O)N[C@H]3CCN(C(=O)Cc4cccs4)[C@@H]3C(=O)N2C1)C1CCC1 [CBK289269],90.497
14,C[N+](C)(C)CCC(=O)CCC(=O)O [CBK262012I],111.339
15,Cc1c(C(=O)N(C)Cc2csc(Br)c2)nnn1C1CCNCC1 [CBK304491],104.841
16,O=C(CS(=O)(=O)c1ccccc1)N1CCN2C(=O)N(C3CCCCC3)C(=O)[C@H]2C1 [CBK289580],88.0592
17,NS(=O)(=O)c1ccc(NC(=O)CC2SC(=O)NC2=O)cc1 (stereo not drawn) [CBK263855],74.245
18,CCCC/C=C/c1cnc2[nH]c(=O)n(Cc3cccs3)c2n1 [CBK064373],113.925
19,COc1nccnc1N1CCN(CCOc2ccccc2)CC1 [CBK084230],85.5767
20,O=C(N/N=C/c1cccnc1)c1cccc(F)c1 [CBK261689],95.0695
21,Nc1nc(SCC(=O)NCc2ccc3c(c2)OCO3)n[nH]1 [CBK266580],114.234
22,CN(C)C(=O)c1ccc(-c2ccc(COC3CCN(C(=O)Cc4ccc(F)cc4)CC3)c(S(C)(=O)=O)c2)cc1 [CBK155963],56.2883
23,COc1nccnc1OC1CCN(Cc2ccc(Cl)cc2)CC1 [CBK084240],85.4721
24,c1cncc(COc2cc(N3CCCC3)ncn2)c1 [CBK115894],116.251
25,OCC1CCCN1c1cncc(-c2ccc(F)cc2F)n1 (stereo not drawn) [CBK065891],96.891
26,CCCOC(=O)c1c(NC(=O)c2cc(-c3ccccc3)nc3ccccc23)sc2c1CCC(C)C2 (stereo not drawn) [CBK262647],104.601
